Test results reported in US20250000993A1, “ANTI-HUMAN CD33 BET DEGRADER ANTIBODY-DRUG CONJUGATES” (AbbVie Inc., priority 2023, published 2025).

Target: CD33-expressing HEK-293 cells (Homo sapiens, UniProt P20138)
Experiment: Flow cytometry (FACS titration) binding to CD33-expressing HEK-293 cells
Details: 4° C. for 2 hours

Chain of CD33-expressing HEK-293 cells (P20138 18-364): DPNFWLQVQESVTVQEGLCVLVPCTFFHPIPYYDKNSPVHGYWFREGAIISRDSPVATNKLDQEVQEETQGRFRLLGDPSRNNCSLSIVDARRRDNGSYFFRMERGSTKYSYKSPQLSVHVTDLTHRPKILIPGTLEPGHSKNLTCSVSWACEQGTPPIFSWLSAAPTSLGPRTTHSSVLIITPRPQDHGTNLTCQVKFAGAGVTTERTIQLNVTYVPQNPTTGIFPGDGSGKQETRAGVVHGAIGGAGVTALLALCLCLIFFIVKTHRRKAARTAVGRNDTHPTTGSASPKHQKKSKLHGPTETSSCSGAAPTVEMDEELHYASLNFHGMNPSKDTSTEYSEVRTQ

B1: mAb2: negative control human anti-CMV IgG; heavy chain SEQ ID NO: 14, light chain SEQ ID NO: 15 (antibody)
heavy: EEQVLESGGGLVKPGGSLRLSCAASGFTFSPYSVFWVRQAPGKGLEWVSSINSDSTYKYYADSVKGRFTISRDNAENSIFLQMNSLRAEDTAVYYCARDRSYYAFSSGSLSDYYYGLDVWGQGTTVIVSS[sequence of human IgG1 constant region not given]
light: DIVMTQSPLSLSVTPGEPASISCRSSQSLLHTNGYNYLDWYVQKPGQSPQLLIYLASNRASGVPDRFSGSGSGTDFTLKISRVETEDVGVYYCMQALQIPRTFGQGTKVEIKRTVAAPSVFIFPPSDEQLKSGTASVVCLLNNFYPREAKVQWKVDNALQSGNSQESVTEQDSKDSTYSLSSTLTLSKADYEKHKVYACEVTHQGLSSPVTKSFNRGEC
For B1, the “binding to CD33-expressing HEK-293 cells” value was “No binding was observed”.
